# Test results as given in the supplement of paper PMC8728848.
# The list shows a part of the results.
# B1: RBMC2 (Vibrio cholerae) (protein)
# chain: KISVRSGFAIDAIGASASTLVGGTGGNLNAAVNVKDIKAIDLTWGKYYWGGYHLLALDFRMSNGSVISMGSKNYAYSKQTERFTVPAGSRIKGIKAWTAGWLLDGVQFELA
# Assays:
# Experiment in all cases: glycan array binding signal (z-score within array); higher = stronger binding
# Conditions in all cases: glycan notation: IUPAC condensed, linker removed
# [1] = target: Neu5Ac(a2-3)Gal(b1-3)GlcNAc6S
# Method in brief: (§1)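 Negative Z-scores can be read as non-binding. The Z-score is calculated within each array and then averaged across arrays of one protein sequence at different concentrations or buffers and across linkers. Arrays, 3228 in all, were curated from the Consortium for Functional Glycomics database and kept only where the protein sequence was available.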
# [2] = target: Neu5Ac(a2-3)Gal(b1-3)[Fuc(a1-4)]GlcNAc
# Method in brief: as §1
# [3] = target: Neu5Ac(a2-3)Gal(b1-3)[Fuc(a1-4)]GlcNAc(b1-3)Gal(b1-3)[Fuc(a1-4)]GlcNAc
# Method in brief: as §1
# [4] = target: Neu5Ac(a2-3)Gal(b1-3)[Fuc(a1-4)]GlcNAc(b1-3)Gal(b1-4)[Fuc(a1-3)]GlcNAc
# Method in brief: as §1
# [5] = target: Neu5Ac(a2-3)Gal(b1-3)[GlcNAc(b1-6)]GalNAc
# Method in brief: as §1
# [6] = target: Neu5Ac(a2-3)Gal(b1-3)[Neu5Ac(a2-6)]GalNAc
# Method in brief: as §1
# [7] = target: Neu5Ac(a2-3)Gal(b1-3)[Neu5Ac(a2-6)]GlcNAc(b1-3)[Fuc(a1-3)[Gal(b1-4)]GlcNAc(b1-6)]Gal(b1-4)Glc
# Method in brief: as §1
# [8] = target: Neu5Ac(a2-3)Gal(b1-3)]Neu5Ac(a2-3)Gal(b1-4)]GlcNAc
# Method in brief: as §1
# [9] = target: Neu5Ac(a2-3)Gal(b1-4)Glc
# Method in brief: as §1
# [10] = target: Neu5Ac(a2-3)Gal(b1-4)GlcNAc
# Method in brief: as §1
# [11] = target: Neu5Ac(a2-3)Gal(b1-4)GlcNAc(b1-2)Man
# Method in brief: as §1
# [12] = target: Neu5Ac(a2-3)Gal(b1-4)GlcNAc(b1-2)Man(a1-3)[GlcNAc(b1-4)][Neu5Ac(a2-3)Gal(b1-4)GlcNAc(b1-2)Man(a1-6)]Man(b1-4)GlcNAc(b1-4)GlcNAc
# Method in brief: as §1
# [13] = target: Neu5Ac(a2-3)Gal(b1-4)GlcNAc(b1-2)Man(a1-3)[Neu5Ac(a2-3)Gal(b1-4)GlcNAc(b1-2)Man(a1-6)]Man(b1-4)GlcNAc(b1-4)GlcNAc
# Method in brief: as §1
# [14] = target: Neu5Ac(a2-3)Gal(b1-4)GlcNAc(b1-2)Man(a1-3)[Neu5Ac(a2-3)Gal(b1-4)GlcNAc(b1-2)Man(a1-6)]Man(b1-4)GlcNAc(b1-4)[Fuc(a1-6)]GlcNAc
# Method in brief: as §1
# [15] = target: Neu5Ac(a2-3)Gal(b1-4)GlcNAc(b1-2)Man(a1-3)[Neu5Ac(a2-6)Gal(b1-4)GlcNAc(b1-2)Man(a1-6)]Man(b1-4)GlcNAc(b1-4)GlcNAc
# Method in brief: as §1
# [16] = target: Neu5Ac(a2-3)Gal(b1-4)GlcNAc(b1-2)[Neu5Ac(a2-3)Gal(b1-4)GlcNAc(b1-4)]Man(a1-3)[GlcNAc(b1-4)][Neu5Ac(a2-3)Gal(b1-4)GlcNAc(b1-2)[Neu5Ac(a2-3)Gal(b1-4)GlcNAc(b1-6)]Man(a1-6)]Man(b1-4)GlcNAc(b1-4)GlcNAc
# Method in brief: as §1
# [17] = target: Neu5Ac(a2-3)Gal(b1-4)GlcNAc(b1-2)[Neu5Ac(a2-3)Gal(b1-4)GlcNAc(b1-4)]Man(a1-3)[GlcNAc(b1-4)][Neu5Ac(a2-3)Gal(b1-4)GlcNAc(b1-4)Man(a1-6)]Man(b1-4)GlcNAc(b1-4)GlcNAc
# Method in brief: as §1
# [18] = target: Neu5Ac(a2-3)Gal(b1-4)GlcNAc(b1-2)[Neu5Ac(a2-3)Gal(b1-4)GlcNAc(b1-6)]Man(a1-6)[Neu5Ac(a2-3)Gal(b1-4)GlcNAc(b1-2)Man(a1-3)][GlcNAc(b1-4)]Man(b1-4)GlcNAc(b1-4)GlcNAc
# Method in brief: as §1
# [19] = target: Neu5Ac(a2-3)Gal(b1-4)GlcNAc(b1-3)Gal
# Method in brief: as §1
# [20] = target: Neu5Ac(a2-3)Gal(b1-4)GlcNAc(b1-3)Gal(b1-3)GlcNAc
# Method in brief: as §1
# [21] = target: Neu5Ac(a2-3)Gal(b1-4)GlcNAc(b1-3)Gal(b1-4)GlcNAc
# Method in brief: as §1
# [22] = target: Neu5Ac(a2-3)Gal(b1-4)GlcNAc(b1-3)Gal(b1-4)GlcNAc(b1-2)Man(a1-3)[Neu5Ac(a2-3)Gal(b1-4)GlcNAc(b1-3)Gal(b1-4)GlcNAc(b1-2)Man(a1-6)]Man(b1-4)GlcNAc(b1-4)GlcNAc
# Method in brief: as §1
# [23] = target: Neu5Ac(a2-3)Gal(b1-4)GlcNAc(b1-3)Gal(b1-4)GlcNAc(b1-3)Gal(b1-4)GlcNAc
# Method in brief: as §1
# [24] = target: Neu5Ac(a2-3)Gal(b1-4)GlcNAc(b1-3)Gal(b1-4)GlcNAc(b1-3)Gal(b1-4)GlcNAc(b1-2)Man(a1-3)[Neu5Ac(a2-3)Gal(b1-4)GlcNAc(b1-3)Gal(b1-4)GlcNAc(b1-3)Gal(b1-4)GlcNAc(b1-2)Man(a1-6)]GalNAc
# Method in brief: as §1
# [25] = target: Neu5Ac(a2-3)Gal(b1-4)GlcNAc(b1-3)Gal(b1-4)GlcNAc(b1-3)GalNAc
# Method in brief: as §1
# [26] = target: Neu5Ac(a2-3)Gal(b1-4)GlcNAc(b1-3)Gal(b1-4)GlcNAc(b1-3)[Neu5Ac(a2-3)Gal(b1-4)GlcNAc(b1-3)Gal(b1-4)GlcNAc(b1-6)]GalNAc
# Method in brief: as §1
# [27] = target: Neu5Ac(a2-3)Gal(b1-4)GlcNAc(b1-3)Gal(b1-4)GlcNAc(b1-6)[Gal(b1-3)]GalNAc
# Method in brief: as §1
# [28] = target: Neu5Ac(a2-3)Gal(b1-4)GlcNAc(b1-3)Gal(b1-4)[Fuc(a1-3)]GlcNAc
# Method in brief: as §1
# [29] = target: Neu5Ac(a2-3)Gal(b1-4)GlcNAc(b1-3)GalNAc
# Method in brief: as §1
# [30] = target: Neu5Ac(a2-3)Gal(b1-4)GlcNAc(b1-3)[Neu5Ac(a2-3)Gal(b1-4)GlcNAc(b1-6)]GalNAc
# Method in brief: as §1
binder,measurement,setting,value
B1,glycan array binding signal (z-score),[1],-0.42
same,glycan array binding signal (z-score),[2],-0.302
same,glycan array binding signal (z-score),[3],-0.151
same,glycan array binding signal (z-score),[4],-0.168
same,glycan array binding signal (z-score),[5],-0.155
same,glycan array binding signal (z-score),[6],-0.265
same,glycan array binding signal (z-score),[7],-0.306
same,glycan array binding signal (z-score),[8],-0.315
same,glycan array binding signal (z-score),[9],0.277
same,glycan array binding signal (z-score),[10],-0.327
same,glycan array binding signal (z-score),[11],-0.319
same,glycan array binding signal (z-score),[12],0.079
same,glycan array binding signal (z-score),[13],2.79
same,glycan array binding signal (z-score),[14],2.69
same,glycan array binding signal (z-score),[15],-0.192
same,glycan array binding signal (z-score),[16],-0.232
same,glycan array binding signal (z-score),[17],-0.369
same,glycan array binding signal (z-score),[18],-0.398
same,glycan array binding signal (z-score),[19],-0.327
same,glycan array binding signal (z-score),[20],-0.419
same,glycan array binding signal (z-score),[21],-0.404
same,glycan array binding signal (z-score),[22],1.18
same,glycan array binding signal (z-score),[23],-0.27
same,glycan array binding signal (z-score),[24],0.456
same,glycan array binding signal (z-score),[25],-0.379
same,glycan array binding signal (z-score),[26],-0.254
same,glycan array binding signal (z-score),[27],-0.322
same,glycan array binding signal (z-score),[28],-0.385
same,glycan array binding signal (z-score),[29],-0.302
same,glycan array binding signal (z-score),[30],-0.26
